This is one part of the list. These are further read-outs of the screen, such as a control signal, another cell line or another target. No call is given for them. Most of these compounds were active or inconclusive in the main read-out, so they are no random draw. Potencies come from curve fits of mixed quality, noted in brackets.
Target: Histamine N-methyltransferase (Homo sapiens) (UniProt P50135)
Assay: Confirmatory Screen for Target Class Profiling of Small Molecule Inhibitors of Methyltransferases (AID 1745852);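 note: inhibitor potency for blocking SAH production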
Settings: MTase-Glo luminescence, SAH detection, recombinant enzyme; measured here: HNMT inhibition potency
Tags give direction and shape of the fitted curve.

Chain of UniProt P50135 (P50135 whole entry, looked up): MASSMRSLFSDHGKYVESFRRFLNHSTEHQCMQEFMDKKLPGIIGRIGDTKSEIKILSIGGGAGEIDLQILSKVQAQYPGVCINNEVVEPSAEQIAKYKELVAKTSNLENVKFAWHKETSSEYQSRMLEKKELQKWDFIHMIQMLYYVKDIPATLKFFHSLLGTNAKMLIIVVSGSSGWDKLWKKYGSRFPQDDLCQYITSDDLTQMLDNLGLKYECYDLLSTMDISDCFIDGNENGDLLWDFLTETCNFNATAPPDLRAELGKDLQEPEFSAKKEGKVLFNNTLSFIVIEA

Row | SMILES | IC50
1 | COc1ccc(OC)c(CN2CCNc3cc(-c4ccnc(C)c4)ncc3C2)c1 | 11.1 µM [falling, full curve]
2 | COc1cccc(-c2cc(NCc3ccc4c(c3)OCO4)nc(N)n2)c1 | 21.5 µM [falling, partial curve]
3 | O=C(Cc1ccsc1)Nc1ccc2c(N3CCCC3)ncnc2c1 | 6.81 µM [falling, partial curve]
4 | c1ccc(CN2CCNc3cnc(Nc4ccc(N5CCOCC5)cc4)cc3C2)cc1 | 35 µM [falling, partial curve]
5 | NC(=O)C1(N2CCCCC2)CCN(c2nc3c(S(=O)(=O)c4ccccc4)nnn3c3ccccc23)CC1 | 10.8 µM [falling, partial curve]
6 | CCn1cc(CN2CCCC23CCN(c2cc(C)nc4ccccc24)CC3)c(C)n1 | 21.5 µM [falling, partial curve]
7 | COc1ccc(NC(=O)C(C)(C)Oc2nn(CC3CC3)c3ccc(CN4CCCC4)cc23)cc1 | 19.2 µM [falling, partial curve]
8 | COc1ccccc1CC(=O)N1CCCc2ncc(C(=O)Nc3cccc(Cl)c3)cc21 | 15.6 µM [falling, partial curve]
9 | CCN1CCN(c2nc3c(S(=O)(=O)c4ccc(C)cc4)nnn3c3ccccc23)CC1 | 13.6 µM [falling, partial curve]
10 | C=CC(=O)Nc1ccc(CN2C(=O)N(c3cc(OC)cc(OC)c3)Cc3cnc(Nc4ccc(N5CCN(C)CC5)cc4)nc32)cc1 | 12.1 µM [falling, partial curve]
11 | COc1ccc2nc([C@H]3CCN(C4CCCCC4)C3)[nH]c2c1 | 31.2 µM [falling, partial curve]
12 | c1ccc(-c2cc3c(cn2)NCCN(Cc2ccccn2)C3)cc1 | 35 µM [falling, partial curve]

Source: PubChem BioAssay (NCATS)
